Measurements as given in PubChem BioAssay AID488969 (Vanderbilt High Throughput Screening Facility, 2010).
Whole data set: some 110,000 compounds, median “z-score” near -0.1, cut for the highest 2% near 2. This is one part of the list. Active and inactive are the calls of the source.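 How the source made its calls: active means z-score in the third read window above 3 or below -3; inactive means the rest.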

Target: Metabotropic glutamate receptor 8 (Rattus norvegicus) (UniProt P70579)
Assay: rat mGluR8 modulators via GIRK flux, primary screen, cell-based, thallium flux, HTS (AID 488969)
Settings: HEK293 rat mGluR8, GIRK (G protein-gated inwardly rectifying potassium channel) thallium flux, FluoZin2; at 10 µM; stronger effect = higher value; submaximal glutamate (EC20) added with thallium

Sequence of UniProt P70579 (P70579 whole entry, looked up): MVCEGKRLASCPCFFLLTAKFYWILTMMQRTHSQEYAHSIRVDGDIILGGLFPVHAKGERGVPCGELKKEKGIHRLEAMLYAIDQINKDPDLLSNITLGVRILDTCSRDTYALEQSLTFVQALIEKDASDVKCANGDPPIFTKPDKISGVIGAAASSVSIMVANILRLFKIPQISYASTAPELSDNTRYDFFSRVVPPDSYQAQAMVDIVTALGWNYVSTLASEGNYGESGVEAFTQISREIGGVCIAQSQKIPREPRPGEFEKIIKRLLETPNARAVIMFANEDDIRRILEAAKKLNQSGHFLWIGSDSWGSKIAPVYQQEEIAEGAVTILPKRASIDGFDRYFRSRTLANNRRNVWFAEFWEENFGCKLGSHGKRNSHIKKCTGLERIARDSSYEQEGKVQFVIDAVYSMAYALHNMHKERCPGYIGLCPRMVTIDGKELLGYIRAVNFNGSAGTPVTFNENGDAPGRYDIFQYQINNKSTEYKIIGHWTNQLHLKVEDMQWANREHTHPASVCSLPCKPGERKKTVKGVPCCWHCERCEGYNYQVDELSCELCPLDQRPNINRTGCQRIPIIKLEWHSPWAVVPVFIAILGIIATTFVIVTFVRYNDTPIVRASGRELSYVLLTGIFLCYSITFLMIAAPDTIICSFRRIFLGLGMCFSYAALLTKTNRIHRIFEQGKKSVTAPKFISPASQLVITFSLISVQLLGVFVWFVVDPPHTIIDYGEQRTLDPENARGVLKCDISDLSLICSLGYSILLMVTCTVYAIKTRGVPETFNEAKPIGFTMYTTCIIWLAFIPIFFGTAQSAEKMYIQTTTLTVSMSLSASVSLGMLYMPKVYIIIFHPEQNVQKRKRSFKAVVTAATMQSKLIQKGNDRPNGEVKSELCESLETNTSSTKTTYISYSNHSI

First: Cn1c(=O)c2c(nc(CN3CCC(C(N)=O)CC3)n2Cc2ccccc2F)n(C)c1=O
Second: Cc1ccc(OCCn2c(Br)nc3c2c(=O)n(C)c(=O)n3C)cc1
The z-score of the first is higher: 0.724 for the first, -0.14 for the second.

First: CCCc1cc(=O)[nH]c(SCc2cc(=O)oc3c(C)c(C)ccc23)n1
Second: CCCCNC(=O)c1cccc2c(=O)c(C)c(-c3ccccc3)oc12
The z-score of the first is lower: -1.49 for the first, -0.618 for the second.

First: CCOc1ccc(OCCN2C(=O)NC(Cc3c[nH]c4ccccc34)C2=O)cc1 (centres undefined)
Second: CCCOc1ccc(N2C(=O)C3ON(c4ccccc4)C(c4ccc(O)c(OC)c4)C3C2=O)cc1 (centres undefined)
The z-score of the first is lower: -0.00423 for the first, 0.27 for the second.

Compared with `O=C(CSc1nnc(CN2CCOCC2)n1-c1ccccc1)N1CCc2ccccc21`, `O=C(CSc1nc(-c2ccco2)cc(C(F)(F)F)n1)N1CCc2ccccc2C1` is lower in z-score: 0.0622 for the first, -0.714 for the second.

Going from `CCOC(=O)c1c(-c2ccccc2)nc2ccc(Cl)cn12` to `CCOC(=O)c1nc2ccccc2s1`, the z-score rises from -0.321 to -0.121.

Compared with `CC(C)Cn1c(O)c(/C=C2\C=NN=C2c2ccccc2)sc1=S`, `O=C(c1ccccc1)n1ccc(-c2cnc(-c3ccccc3)s2)n1` is lower in z-score: -0.103 for the first, -0.145 for the second.

Compared with `COc1ccc(CCN2C(=O)C(Oc3ccccc3C)C2c2ccc3c(c2)OCO3)cc1OC` (centres undefined), `COc1ccc(CC(=O)OCc2cc3cccc(C)c3[nH]c2=O)cc1` is higher in z-score: -0.433 for the first, -0.297 for the second.

First: O=c1cc(CNCCCO)c2ccccc2[nH]1
Second: CCCCN1C(=O)C(O)=C(C(C)=O)C1c1ccccc1 (centres undefined)
The z-score of the first is higher: 0.351 for the first, -1.99 for the second.

Compared with `CSc1cccc(NC(=O)CN(C)S(=O)(=O)c2ccc(F)cc2)c1`, `CN(c1ccccc1C(=O)Nc1cccc(C(F)(F)F)c1)S(C)(=O)=O` is higher in z-score: -0.437 for the first, 0.471 for the second.

First: O=C(CNC(=O)c1cc2ccccc2o1)NCc1cccs1
Second: Cc1cc(C(=O)CN2C(=O)c3ccccc3C2=O)c(C)n1Cc1cccs1
The z-score of the first is lower: 0.0265 for the first, 0.433 for the second.

Compared with `c1cnc(SCCCOc2ccc3ccccc3c2)nc1`, `O=c1[nH]c(SCCOc2ccccc2)nc2ccccc12` is lower in z-score: -0.054 for the first, -0.359 for the second.

Going from `COc1cc(/C=N/NC(=O)c2csc3c2CCCC3)cc(OC)c1O` to `COc1ccc(/C=C/C(=O)c2ccc(NC(=O)c3cccs3)cc2)cc1OC`, the z-score falls from -0.296 to -0.7.

Compared with `Cc1ccc(S(=O)(=O)c2c(N)n(NC(=O)c3ccccc3C)c3nc4ccccc4nc23)cc1`, `Cc1ccc(-c2nn(-c3ccccc3)cc2C(=O)Nc2ccc(C)c(S(=O)(=O)N3CCOCC3)c2)cc1` is higher in z-score: -0.679 for the first, -0.104 for the second.

Going from `Cc1ccnc(NC(=O)c2cccc(NS(=O)(=O)c3ccccc3C)c2)c1` to `O=[N+]([O-])c1cc(S(=O)(=O)Nc2cccc(C(F)(F)F)c2)ccc1-n1nnc2ccccc21`, the z-score falls from -0.409 to -2.37.

Going from `CCc1cccc(C)c1NC(=O)Cn1c(NCCO)nc2ccccc21` to `Cc1cccc(C)c1NC(=O)C(NC(=O)CN1C(=O)c2ccccc2C1=O)c1ccccc1` (centres undefined), the z-score rises from -0.249 to -0.142.

First: Cc1cccc(NC(=O)NC(C)C(c2cccs2)N2CCOCC2)c1 (centres undefined)
Second: Cc1c(Cl)cccc1NC(=S)NN1CCOCC1
The z-score of the first is higher: 0.122 for the first, -0.264 for the second.

Going from `Cc1nc2sc(C(c3ccco3)N3CCN(c4ccccc4F)CC3)c(O)n2n1` (centres undefined) to `O=C(c1ccccc1F)N1CCN(c2ncccn2)CC1`, the z-score rises from -0.809 to -0.0494.

Going from `Cc1cc(C)nc(SCC(=O)N/N=C\C(Br)=C\c2ccccc2)n1` to `Cc1cc(C)nc(SCc2nnc(SCC(=O)Nc3nc(-c4ccccc4)cs3)n2C)n1`, the z-score falls from -0.184 to -0.738.

Going from `CC1CCCCN1C(=S)NCCc1ccccc1` (centres undefined) to `CCOc1ccccc1NC(=O)C1CCCN(C(=O)NCc2ccccc2)C1` (centres undefined), the z-score falls from 0.0194 to -0.122.

Going from `N#Cc1c(SCc2cccc(Cl)c2)sc(C(=O)c2ccccc2)c1N` to `CC1(C)CC(=O)/C(=C(\O)c2ccccc2)C(=NCCc2ccccc2)C1`, the z-score rises from -0.00374 to 0.802.

Compared with `CC(C)[C@H](NS(=O)(=O)c1ccccc1)C(=O)OCC(=O)N1N=C(c2ccc(Cl)cc2)CC1c1ccco1` (some centres undefined), `CCCNS(=O)(=O)c1ccc(CCC(=O)Nc2cc(Cl)ccc2Oc2ccccc2)cc1` is higher in z-score: -0.27 for the first, -0.151 for the second.

Compared with `CCOc1ccc2c(c1)-c1c(ssc1=S)C(C)(C)N2C(=O)CSC1=NCCS1`, `CCOc1ccc(OCC)c(NC(=O)CN2CCN(c3cccc(C)c3)C(C)C2)c1` (centres undefined) is higher in z-score: -0.153 for the first, -0.000428 for the second.

Going from `N#C/C(=C\c1cn(-c2ccccc2)nc1-c1cc2ccccc2o1)c1nc2ccccc2[nH]1` to `O=C(COC(=O)c1cc(-c2cccc3ccccc23)nc2ccccc12)NC1CCS(=O)(=O)C1` (centres undefined), the z-score falls from -0.302 to -0.675.

First: COc1ccc(N2CCN(C(=O)c3cccc(N4C(=O)C5CC=CC(C)C5C4=O)c3)CC2)cc1 (centres undefined)
Second: N#Cc1ccc(C(=O)Nc2ccc(N3CCN(C(=O)c4ccco4)CC3)cc2)c(F)c1
The z-score of the first is lower: -0.43 for the first, -0.135 for the second.

Going from `Cn1c(C(=O)O)c(CC(=O)Nc2ccc3c(c2)OCCO3)c2ccccc21` to `Cc1ccccc1C(=O)N1CCC(C(=O)Nc2ccc3c(c2)OCCO3)CC1`, the z-score rises from -0.0244 to 0.144.

Going from `C1=C2C[N+]3(CCCC3)CC2Cc2ccc3ccccc3c21` (centres undefined) to `CCOC1Cc2ccccc2N(C(N)=O)c2ccccc21` (centres undefined), the z-score falls from -0.0544 to -0.0561.

First: Cc1nnsc1C(=O)Nc1cccc(Cl)c1Cl
Second: COc1cc([N+](=O)[O-])ccc1NC(=O)C[n+]1cccc(C)c1
The z-score of the first is higher: 0.148 for the first, -0.0934 for the second.

Compared with `COCCn1c(-c2ccccc2F)n[nH]c1=S`, `CCCCCCn1c(C(C)O)nc2ccccc21` (centres undefined) is higher in z-score: -0.0994 for the first, 0.247 for the second.

First: COc1ccc[nH]c1=O
Second: COc1cccc2c1OC1(C)CC2/C(=C(\C)O)C(=O)N1 (centres undefined)
The z-score of the first is higher: 0.516 for the first, 0.343 for the second.

Compared with `CCOC(=O)c1c(C)[nH]c(C(=O)OCCOc2ccccc2C)c1C`, `CCOC(=O)c1ccc(Nc2cc(C)nc(C)c2C(=O)OCC)cc1` is higher in z-score: -0.0787 for the first, 0.455 for the second.

Going from `CCC(C)C(=O)Nc1cc(C(=O)OC)ccc1C(=O)OC` (centres undefined) to `CCOC(=O)C1=C(C)N=C2SC(C(=O)OC)=CC(=O)N2C1c1cccc(OC)c1` (centres undefined), the z-score rises from -0.319 to -0.132.

First: CC(/C=N/N1CCN(c2ccccc2)CC1)=C\c1ccccc1
Second: O=C(NCCN1CCN(C(=O)Nc2ccccc2)CC1)Nc1ccccc1
The z-score of the first is higher: 0.136 for the first, -2.82 for the second.

First: O=C(c1ccco1)n1nc(-c2ccccc2)nc1NCc1ccco1
Second: O=C(NCc1ccco1)c1ccc(=O)oc1
The z-score of the first is higher: 1.5 for the first, 0.28 for the second.

First: O=C(NC1CCCCCC1)c1ccc(N2CCCC2=O)cc1
Second: O=C(N/N=C/c1cccc(F)c1)NC1CCCCC1
The z-score of the first is lower: -0.367 for the first, -0.14 for the second.

Compared with `COc1ccc(C(CC(=O)Nc2cc(OC)cc(OC)c2)n2cccc2)cc1` (centres undefined), `COc1ccc(NC(=O)CC2C(=O)N(c3ccc(Cl)cc3)C(=S)N2CCc2ccccn2)cc1` (centres undefined) is higher in z-score: -0.195 for the first, 0.904 for the second.

Compared with `COc1ccc2[nH]c(C)c(CCNc3ccc(C(F)(F)F)cc3[N+](=O)[O-])c2c1`, `CCN(CC)C(=O)c1sc(NC(=O)c2ccc(C)c([N+](=O)[O-])c2)c(C#N)c1C` is higher in z-score: -0.383 for the first, 0.0677 for the second.

Compared with `CC(C)=CCCC1=CCC(/C(C)=N/NC(N)=O)CC1` (centres undefined), `CCCCNC(=S)NNC(=O)c1csc2c1CCC(C)C2` (centres undefined) is higher in z-score: -0.178 for the first, 0.319 for the second.

Compared with `CN(C(=O)CSc1nnc2ccccn12)C1CCS(=O)(=O)C1` (centres undefined), `CC1(C)CC(=O)C(C2C3=C(CC(C)(C)CC3=O)Oc3ccccc32)=C(O)C1` (centres undefined) is higher in z-score: 0.0961 for the first, 0.639 for the second.

Compared with `CC(C)c1cc(C(F)(F)F)n2nc(C(=O)O)cc2n1`, `Cc1ccc(N2/C(=N/c3nc(C)cc(C)n3)NC(=O)CC2C(=O)O)cc1` (centres undefined) is lower in z-score: 0.207 for the first, -0.179 for the second.

Compared with `CC(=O)NCCc1ccc(S(=O)(=O)Nc2cccnc2)cc1`, `CC(=O)Nc1ccc(S(=O)(=O)N=S(C)C)cc1` is lower in z-score: 0.754 for the first, -0.0545 for the second.

First: Cc1cccn2cc(-c3ccc(F)cc3)nc12
Second: CC(C)(C)c1ccc(C(=O)N/C(N)=N/c2nc3ccccc3o2)cc1
The z-score of the first is higher: 1.36 for the first, 0.248 for the second.

Going from `COc1ccc(N(CC(=O)Nc2ccc(C)cn2)S(=O)(=O)c2c(C)nn(C)c2C)cc1` to `COc1ccc(S(=O)(=O)N2CCN(CCC(=O)Nc3ccccc3F)CC2)cc1`, the z-score falls from -0.119 to -0.124.

Going from `O=S(=O)(/N=C(\c1ccc(Cl)cc1)N1CCOCC1)c1ccccc1` to `O=C(Nc1ccon1)c1cccc(S(=O)(=O)N2CCCCCC2)c1`, the z-score rises from -0.45 to -0.324.

Going from `CN(C(=O)CC(NC(=O)c1ccccc1)(c1ccccc1)c1ccccc1)c1ccccc1` to `Cc1ccc(NC(=O)CC2C(=O)N(Cc3ccccc3)C(=S)N2NC(=O)c2ccccc2)c(C)c1` (centres undefined), the z-score rises from -0.934 to -0.193.

Compared with `CCO/C=N/c1c(C#N)c(CC#N)nn1-c1ccccc1`, `Cc1cc(C)c(C#N)c(SCC(O)CS(=O)(=O)Cc2ccccc2)n1` (centres undefined) is higher in z-score: -0.0375 for the first, 0.126 for the second.

Going from `COc1cc(CC(=O)OCC(=O)Nc2cc(S(=O)(=O)N3CCCC3)ccc2Cl)cc(OC)c1OC` to `COC(=O)Nc1ccc(S(=O)(=O)N2CCCCC2)cc1`, the z-score rises from -0.06 to 0.127.

First: Cc1cccc(C(=O)N=c2c(C#N)cc3c(=O)n4cccc(C)c4nc3n2Cc2ccco2)c1
Second: O=C(Nc1ccc2nc(-c3ccc4nc[nH]c4c3)[nH]c2c1)c1cccs1
The z-score of the first is higher: 0.568 for the first, -0.0282 for the second.

Going from `COCCn1c(SCC(=O)Nc2ncc(C)s2)nc2sc3c(c2c1=O)CCC3` to `CCc1cc2cc3c(cc2nc1SCC(=O)Nc1nccs1)OCO3`, the z-score rises from -2.11 to 0.464.

Going from `Clc1ccc(CSCCc2ccncc2)cc1` to `Cc1cc(C(=O)CSc2nnnn2C)c(C)n1CCc1ccc(Cl)cc1`, the z-score falls from -0.0832 to -1.09.

First: CN(C)c1ccc(/C=C/c2ccc3ccccc3[n+]2C)cc1
Second: C/C(=N\Nc1cc(Cl)nc(C)n1)c1ccccc1
The z-score of the first is higher: 0.041 for the first, -0.103 for the second.

Going from `CN(C)S(=O)(=O)c1ccc(S(=O)(=O)NC2CCOC(C)(C)C2)cc1` (centres undefined) to `CC(C)(C)SCCNS(=O)(=O)c1ccccc1`, the z-score rises from -1.16 to -0.219.

Going from `COc1ccc(N=C2CCCN2CC(N)=O)cc1` to `CC1=C/C(=N\NC(=O)c2ccccc2)CC1`, the z-score falls from 1.1 to -0.0871.

Going from `O=C(c1cc(Br)c(Br)s1)N1CCN(C/C=C/c2ccccc2)CC1` to `CCS(=O)(=O)N1CCN(C(=O)c2ccco2)CC1`, the z-score rises from -0.553 to -0.17.

Compared with `C=CCNCCCCOc1ccc(Br)cc1C`, `O=C(NC(=S)NC1CC1)c1cccnc1` is higher in z-score: -0.109 for the first, 0.798 for the second.

`O=C(Nn1c(C2CCCCC2)nc2ccccc2c1=O)c1ccc([N+](=O)[O-])cc1Cl` was tested, and the z-score was active: -3.19.
